Source: patent publication US20210038681A1, “PHARMACEUTICAL COMPOSITION FOR TREATING VIRAL HEPATITIS C” (priority 2018, published 2021)

Tested on: HCV genotypes 1a, 1b, 2a NS5A, 3a NS5A, 4a NS5A, 5a NS5A, 6a NS5A, and 7a NS5A replicon cells
Test: Standard 3-day HCV replicon assays, summary over genotypes
Format: cell-based

COC(=O)N[C@H](C(=O)N1CCC[C@H]1c1ncc(-c2ccc3cc(-c4ccc5nc([C@@H]6CCCN6C(=O)[C@@H](NC(=O)OC)C(C)C)[nH]c5c4)ccc3c2)[nH]1)C(C)C [ASC16, Ravidasvir]
EC90 (Hepatitis C virus, read-out: EC90 for all major HCV genotypes): ≤ 3.35 nM and < 0.003 µg/mL
EC50 (Hepatitis C virus, read-out: susceptible concentrations (EC50) against other HCV genotypes): 0.04 to 1.14 nM
concentration at which inhibition rate of replication of genotype 1 virus reached 90% (genotype 1 virus (1a and 1b)): ≤ 0.32 nM and ≤ 0.24 ng/mL

“And” between values parts separate entries of the source, which are not always exact repeats. Identical values can stand only once.
